From PubChem BioAssay AID720708 (National Center for Advancing Translational Sciences (NCATS), 2013)
The campaign covered roughly 360,000 compounds. About 660 (0.18%) were called active. The inconclusive results got no clear call from the source; some entries with a clear call stand among them for comparison. The call rests on the fitted dose curve; in most records, active means well fitted inhibition curve with a large enough effect; inconclusive means small, poorly fitted or top-dose-only effect; inactive means no such curve, though single readings can be large or run the other way. No potency is given beside an inconclusive call; the fits are too rough.

biological target: Rap guanine nucleotide exchange factor 4 (Homo sapiens) (UniProt Q8WZA2); test: qHTS for Antagonist of cAMP-regulated guanine nucleotide exchange factor 2 (EPAC2): primary screen; settings: EPAC2 GEF exchange of Rap1B-BODIPY-GDP, fluorescence; activity, negative = inhibition: at 114 µM (top of the series) unless noted; further: nearly all actives have a fitted effect of over 45% in size
Chain of UniProt Q8WZA2 (Q8WZA2 whole entry, looked up): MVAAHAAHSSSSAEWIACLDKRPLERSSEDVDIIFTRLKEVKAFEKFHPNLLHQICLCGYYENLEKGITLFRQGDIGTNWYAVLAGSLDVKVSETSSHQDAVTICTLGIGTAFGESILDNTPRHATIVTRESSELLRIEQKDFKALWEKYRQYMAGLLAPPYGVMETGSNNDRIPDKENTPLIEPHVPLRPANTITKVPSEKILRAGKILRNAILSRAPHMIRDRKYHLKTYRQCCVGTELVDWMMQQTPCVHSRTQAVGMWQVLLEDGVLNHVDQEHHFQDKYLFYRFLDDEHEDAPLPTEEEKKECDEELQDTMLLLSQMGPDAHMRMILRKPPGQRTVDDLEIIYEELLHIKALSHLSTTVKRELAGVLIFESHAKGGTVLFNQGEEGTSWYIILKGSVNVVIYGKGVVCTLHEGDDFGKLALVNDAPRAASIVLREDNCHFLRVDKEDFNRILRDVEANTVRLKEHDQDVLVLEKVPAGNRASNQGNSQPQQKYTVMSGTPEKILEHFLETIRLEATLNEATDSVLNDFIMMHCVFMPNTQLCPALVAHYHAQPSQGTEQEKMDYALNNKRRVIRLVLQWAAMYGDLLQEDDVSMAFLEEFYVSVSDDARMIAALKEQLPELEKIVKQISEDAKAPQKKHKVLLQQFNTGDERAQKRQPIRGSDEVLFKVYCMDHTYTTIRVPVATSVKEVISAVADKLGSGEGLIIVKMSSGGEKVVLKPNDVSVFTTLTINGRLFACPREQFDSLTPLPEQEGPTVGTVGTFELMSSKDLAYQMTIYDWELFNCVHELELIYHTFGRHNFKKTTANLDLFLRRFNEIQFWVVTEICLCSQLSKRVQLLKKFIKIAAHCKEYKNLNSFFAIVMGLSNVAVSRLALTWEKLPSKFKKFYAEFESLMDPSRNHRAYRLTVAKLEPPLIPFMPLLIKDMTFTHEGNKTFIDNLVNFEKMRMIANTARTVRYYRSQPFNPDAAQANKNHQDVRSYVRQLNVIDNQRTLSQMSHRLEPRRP
On the % scale 0 is the no-effect control and ±100 the full control effect; potency means the concentration at half of the fitted maximal effect; tags describe the fitted curve by direction and shape.

For CC(=O)c1nc2ccccc2n1Cc1ccccc1, which Potency is on record?
The Potency was inconclusive [inhibitor, partial curve].

Cc1cccc2c1-c1sc(C(=O)N3CCCCC3)cc1CO2 was tested. Which Potency did it give?
Its Potency is inconclusive [inhibitor, partial curve, poor fit].

Which Potency does the source give for COc1ccccc1N(CC(=O)Nc1ccc(C(F)(F)F)cc1)S(C)(=O)=O here?
The Potency was inconclusive [inhibitor, full curve, poor fit].

For Cc1ccc(C(=O)Nc2ccc(C(=O)N/N=C/c3cccnc3)cc2)cc1, which Potency is on record?
Its Potency is inconclusive [inhibitor, partial curve].

Which Potency does the source give for CC(=O)NC(C)c1cc(Cl)c2ccccc2c1O (centres undefined) here?
The Potency was inconclusive [inhibitor, full curve].

For CCN1/C(=C/C(C)=C/c2sc3ccccc3[n+]2CC)Sc2ccccc21, which Potency is on record?
The Potency was inconclusive [inhibitor, partial curve].

CN(Cc1ccc(F)cc1)C(=O)c1cccc(NS(=O)(=O)c2ccccc2)c1 was tested. Which Potency did it give?
Its Potency is “inactive”.

How did the Potency turn out when Cc1ccc(Nc2c(-c3ccccc3O)nc3cnccn23)cc1 was run?
The Potency was inconclusive [inhibitor, partial curve].

For COc1ccc([C@H]2CC(=O)C=C(c3cccc(C(C)C)c3)C2)cc1OC, which Potency is on record?
The Potency was inconclusive [inhibitor, full curve, poor fit].

For COc1ccc(CN2CC(C(=O)N3CCOCC3)CC2=O)cc1 (centres undefined), which Potency is on record?
Its Potency is inconclusive [inhibitor, single point].

With COc1ccc(N(C(=O)c2ccncc2)S(=O)(=O)c2cccs2)cc1 as the compound, how does the Potency read?
Its Potency is inconclusive [inhibitor, single point].

Which Potency does the source give for CCOC(=O)c1c(NC(=O)C(C)Sc2nnc(C)c(=O)[nH]2)sc2c1CCCC2 (centres undefined) here?
The Potency was inconclusive [inhibitor, partial curve].

CCCCC1Cc2[nH]c(=S)[nH]c(=O)c2C(c2ccc(F)cc2)O1 (centres undefined) was tested. Which Potency did it give?
The Potency was inconclusive [inhibitor, single point].

Which Potency does the source give for COc1ccccc1NC(=O)CCSc1nc(C)cs1 here?
The Potency was “inactive”.

Which Potency does the source give for CCOC(=O)/C(C#N)=C/c1cc2ccccc2nc1N1CCOCC1 here?
Its Potency is inconclusive [inhibitor, partial curve].

For CCN(CC)S(=O)(=O)c1ccc(C(=O)Nc2ccc(Cc3ccncc3)cc2)cc1, which Potency is on record?
The Potency was “inactive”.

How did the Potency turn out when CN1N=C2c3ccccc3CCCC2C1c1ccc(F)cc1 (centres undefined) was run?
Its Potency is inconclusive [inhibitor, partial curve].

For COc1ccccc1NC(=O)COC(=O)c1ccc([N+](=O)[O-])s1, which Potency is on record?
The Potency was inconclusive [inhibitor, full curve].

With CC1=C(C(=O)OCc2ccccc2)C(c2ccc(-c3ccccc3)cc2)NC(=O)N1CCCCCC(=O)O (centres undefined) as the compound, how does the Potency read?
Its Potency is inconclusive [inhibitor, partial curve].

For COc1cc2sc(C)nc2c2ccccc12, which Potency is on record?
The Potency was inconclusive [inhibitor, partial curve].

CN(C)c1cccc(NC(=O)C2(C)CC2(Cl)Cl)c1 (centres undefined) was tested. Which Potency did it give?
Its Potency is “inactive”.

Which Potency does the source give for COc1ccc(/C=N/n2c(SC)nnc(C(C)(C)C)c2=O)cc1 here?
The Potency was “inactive”.

How did the Potency turn out when C=CCOC(=O)C(=O)/C=C/c1ccc2c(c1)Cc1ccccc1-2 was run?
Its Potency is “inactive”.

How did the Potency turn out when Cc1ccc(CC2(C)C(=O)Nc3c(Cl)ccc(Cl)c32)cc1 (centres undefined) was run?
Its Potency is inconclusive [inhibitor, partial curve].

With COc1ccc(NC(=O)CSc2nc(C)cc(C)n2)cc1 as the compound, how does the Potency read?
Its Potency is “inactive”.

Which Potency does the source give for Oc1ccc(Br)cc1/C=N/n1c(-c2ccccc2)n[nH]c1=S here?
The Potency was “inactive”.

C=C(C)CN(CC)C(=O)CCc1nnc(CCc2c[nH]c3ccccc23)o1 was tested. Which Potency did it give?
The Potency was inconclusive [inhibitor, single point].

Which Potency does the source give for COc1ccccc1C1=NC(c2ccc(C)cc2)N=C1C (centres undefined) here?
The Potency was inconclusive [inhibitor, partial curve].

With COc1ccc(C(C#N)=C2C=CC(=NO)c3ccccc32)cc1 as the compound, how does the Potency read?
The Potency was inconclusive [inhibitor, partial curve].

For CC1CCCN(C2=C(NS(=O)(=O)c3ccc(Cl)cc3)C(=O)c3ccccc3C2=O)C1 (centres undefined), which Potency is on record?
The Potency was inconclusive [inhibitor, partial curve].

Which Potency does the source give for C=CS(=O)(=O)N(Cc1ccccc1Br)[C@H](CO)CC(C)C here?
The Potency was inconclusive [inhibitor, single point].

For C[n+]1cccc2c(Br)ccc([O-])c21, which Potency is on record?
The Potency was inconclusive [inhibitor, full curve].

COc1ccc(COC(=O)C2CCN(C(=O)c3ccc(Cl)cc3)CC2)cc1F was tested. Which Potency did it give?
The Potency was “inactive”.

For CCCCCCCCNc1ncnc2ccccc12, which Potency is on record?
Its Potency is inconclusive [inhibitor, partial curve].

How did the Potency turn out when NS(=O)(=O)c1ccc(Nc2nc3ccccc3nc2NS(=O)(=O)c2cccc([N+](=O)[O-])c2)cc1 was run?
The Potency was inconclusive [inhibitor, partial curve].

Which Potency does the source give for COC(=O)c1ccc(Cn2nc(-c3cc(C)ccc3C)ccc2=O)cc1 here?
The Potency was inconclusive [inhibitor, partial curve].

How did the Potency turn out when Brc1ccccc1C1Nc2cccc3cccc(c23)N1 was run?
Its Potency is inconclusive [inhibitor, partial curve].

How did the Potency turn out when O=C(OCc1ccc(Cl)c(Cl)c1)c1cccnc1Cl was run?
Its Potency is inconclusive [inhibitor, partial curve].

How did the Potency turn out when CCOc1ccc(NC(=O)CN(C)C(=O)c2cccnc2Sc2ccc(C)cc2C)cc1OCC was run?
The Potency was inconclusive [inhibitor, single point].

O=C(Cc1ccc(Cl)cc1Cl)Nc1ccncc1 was tested. Which Potency did it give?
Its Potency is inconclusive [inhibitor, partial curve].

CCOC(=O)N1C(=O)C[C@](Sc2ccc(C)cc2)(C(=O)OC)[C@H]1c1ccccc1 was tested. Which Potency did it give?
Its Potency is inconclusive [inhibitor, partial curve].

With COc1ccc(C(=O)Nc2cccc(NC(C)=O)c2)cc1 as the compound, how does the Potency read?
Its Potency is inconclusive [inhibitor, single point].

Cc1ccc2nc(-c3ccccc3)c(Cc3cccc(Cl)c3)n2c1 was tested. Which Potency did it give?
Its Potency is inconclusive [inhibitor, partial curve].

Which Potency does the source give for CC(c1ccccc1)N1C(=O)c2cccnc2C1=O (centres undefined) here?
The Potency was “inactive”.

For Cc1ccc(-n2c(=S)sc3c(=O)n(-c4ccccc4F)c(SCC(=O)O)nc32)cc1C, which Potency is on record?
The Potency was inconclusive [inhibitor, partial curve].

With Cn1cccc1/C=C1\SC(=S)N(NC(=O)c2ccccc2Cl)C1=O as the compound, how does the Potency read?
Its Potency is “inactive”.

How did the Potency turn out when O=C(c1ccc2c3n(nc2c1)-c1ccc(Cl)cc1CO3)N1CCOCC1 was run?
Its Potency is “inactive”.

With CNc1nc(SCc2ccccc2Cl)nc2c1CCCC2 as the compound, how does the activity, negative = inhibition read?
Its activity, negative = inhibition is inconclusive: -15.7% [inhibitor].

For CC(C)CC(=O)OCC(=O)Nc1ccccc1Sc1ccccc1, which Potency is on record?
Its Potency is inconclusive [inhibitor, partial curve].

For CCOC(CNC(=O)CN1C(=O)COc2ccc(S(=O)(=O)N3CCCC3)cc21)OCC, which Potency is on record?
The Potency was “inactive”.

CCOc1ccc2c(c1)C(=O)c1cc(OCC(=O)O)ccc1-2 was tested. Which Potency did it give?
Its Potency is inconclusive [inhibitor, single point].

COc1ccc(C(=O)NC2CCCc3ccccc32)c(OC)c1OC (centres undefined) was tested. Which Potency did it give?
Its Potency is inconclusive [inhibitor, partial curve].

O=C(CC1Sc2ccccc2NC1=O)Nc1ccccc1[N+](=O)[O-] (centres undefined) was tested. Which Potency did it give?
The Potency was “inactive”.

How did the Potency turn out when CCOC(=O)c1c(S(=O)(=O)Nc2ccc(F)cc2Cl)c(C)n(C)c1C was run?
The Potency was inconclusive [inhibitor, partial curve].

For COc1ccc(-c2nn(-c3ccccc3C)cc2CNCCc2cnc[nH]2)cc1F, which Potency is on record?
The Potency was inconclusive [inhibitor, single point].

How did the Potency turn out when CCCCC#Cc1ccccc1CC(=O)Nc1ccccc1 was run?
Its Potency is inconclusive [inhibitor, single point].

With CCN(CC)c1ccc(C2C3CCCCC3(O)CCN2C(=O)c2cccs2)cc1 (centres undefined) as the compound, how does the Potency read?
Its Potency is inconclusive [inhibitor, single point].

C/C(=N/NS(=O)(=O)c1ccc(C(C)(C)C)cc1)c1ccc2c(c1)OCO2 was tested. Which Potency did it give?
Its Potency is inconclusive [inhibitor, partial curve].

With CN(C(=O)CCc1ccccc1)c1nnc(-c2ccncc2)s1 as the compound, how does the Potency read?
The Potency was “inactive”.

Which Potency does the source give for N#Cc1ccccc1C[C@H](N)C(=O)NC[C@H]1O[C@@H](n2cnc3c(N)ncnc32)[C@H](O)[C@@H]1O here?
Its Potency is inconclusive [inhibitor, single point].

Cc1ccc(C(=O)COC(=O)c2ccc(O)cc2)cc1 was tested. Which Potency did it give?
The Potency was inconclusive [inhibitor, full curve, poor fit].

CCc1ccc2c(c1)C(=O)C[C@]1(CCC[C@H](C)C1)O2 was tested. Which Potency did it give?
The Potency was inconclusive [inhibitor, full curve].

With Cc1ccc(S(=O)(=O)NC(=O)Cn2nnc(-c3ccccc3)c2COc2ccc3ccccc3c2)cc1 as the compound, how does the Potency read?
The Potency was inconclusive [inhibitor, full curve].

COC(=O)C(N)Cc1ccc(O)c(O)c1 (centres undefined) was tested. Which Potency did it give?
The Potency was “inactive”.

O=C(COC(=O)c1ccc(S(=O)(=O)NCc2ccco2)cc1)NCc1ccc(F)cc1 was tested. Which Potency did it give?
The Potency was “inactive”.

For CCc1ccc2[nH]c(=O)c(CN(Cc3nnnn3C3CCCC3)C3CCCCC3)cc2c1, which Potency is on record?
Its Potency is “inactive”.

For Cc1cc(C)c(N=C2C(=O)Nc3ccccc32)c(C)c1, which Potency is on record?
The Potency was inconclusive [inhibitor, partial curve, poor fit].

With CCc1ccc(CN(C)C(=O)c2cc(COc3cncc(Cl)c3)on2)cc1 as the compound, how does the Potency read?
The Potency was inconclusive [inhibitor, single point].

Which Potency does the source give for CCCCc1c(Cc2ccccc2)ncn1CCc1ccccc1OC here?
Its Potency is inconclusive [inhibitor, partial curve].
